Reference: the supplement of paper PMC9446081
Hit rate of the full screen: of about 39,000 compounds, about 220 (0.56%) showed activity. Some of the results follow.

The compounds below were run on Escherichia coli K-12 BW25113 (assay: relative growth (OD600 normalised to plate interquartile mean) (fraction); higher = less growth inhibition, active = 0.2 or less). Conditions: 50 µM; LB; incubation time: overnight (16-24 h).
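Note: static incubation at 37 °C against the wild-type strain, values averaged over two biological replicates.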

Structure (SMILES)	relative growth
CCN(CC)C[C@@H](O)CN	inactive: 0.976
COc1ccc(S(=O)(=O)N(C)C[C@@H]2Oc3ncc(-c4ccc(F)cc4)cc3C(=O)N([C@H](C)CO)C[C@@H]2C)cc1	inactive: 0.96
C[C@@H]1CN([C@@H](C)CO)C(=O)c2cc(NC(=O)NC3CCCCC3)ccc2O[C@@H]1CN(C)S(C)(=O)=O	inactive: 0.999
Nc1nc2nn[nH]c2c(=O)[nH]1	inactive: 1.02
COCC#Cc1cnc2c(c1)C(=O)N([C@H](C)CO)C[C@H](C)[C@H](CN(C)S(=O)(=O)c1ccccc1)O2	inactive: 1.01
C[C@@H]1CN([C@@H](C)CO)C(=O)Cc2cc(NC(=O)C3CC3)ccc2O[C@H]1CN(C)Cc1ccc2c(c1)OCO2	inactive: 0.971
COc1ccc(NC(=O)N(C)C[C@@H]2Oc3ccc(NS(=O)(=O)c4c(C)noc4C)cc3C(=O)N([C@H](C)CO)C[C@@H]2C)cc1	inactive: 0.992
C[C@@H]1CN([C@@H](C)CO)C(=O)Cc2cc(NS(=O)(=O)c3ccc(F)cc3)ccc2O[C@H]1CN(C)S(=O)(=O)c1cccs1	inactive: 0.997
O=C(C[C@H]1CC[C@H]2[C@@H](COC[C@H](O)CN2C(=O)c2cnccn2)O1)N1CCN(c2ccccc2)CC1	inactive: 1.01
C[C@H]1CN([C@@H](C)CO)C(=O)Cc2cc(NS(=O)(=O)c3ccc(Cl)cc3)ccc2O[C@H]1CN(C)Cc1ccc(-c2ccccc2)cc1	inactive: 0.992
Cn1cnc(S(=O)(=O)N[C@@H]2CC[C@H](CC(=O)N3CCN(c4ccccc4)CC3)O[C@@H]2CO)c1	inactive: 0.974
C[C@@H]1CN([C@@H](C)CO)C(=O)c2c(c3ccccc3n2C)-c2ccccc2CO[C@H]1CN(C)Cc1ccc(C(=O)O)cc1	inactive: 0.992
CCN(CC)CC(=O)N1c2ccccc2CCc2ccc(NC(=O)c3cc(OC)c(OC)c(OC)c3)cc21	inactive: 0.995
CCc1ccc(Nc2c3c(nc4ccccc24)CCC3)cc1	inactive: 0.805
O=C(CN1CCOCC1)NCC[C@H]1CC[C@H](NC(=O)Nc2ccccc2)[C@@H](CO)O1	inactive: 1
C[C@@H]1CCCCO[C@H](CN(C)C(=O)CCC(F)(F)F)[C@@H](C)CN([C@@H](C)CO)C(=O)c2cc(NC(=O)Cc3ccccc3)ccc2O1	inactive: 1
COCC(=O)N1C[C@H](C)[C@H](OC)CN(C)C(=O)c2ccc(NC(=O)c3cc(C)on3)cc2OC[C@H]1C	inactive: 1
NC(=O)C[C@H]1Sc2ccccc2NC1=O	inactive: 1.06
CN1CCN(C(=O)C[C@@H]2CC[C@@H](NC(=O)c3ccc4c(c3)OCO4)[C@H](CO)O2)CC1	inactive: 1
N[C@@H](CCC(=O)N[C@@H](CS[N+][O-])C(=O)NCC(=O)O)C(=O)O	inactive: 1.02
O=S1(=O)CC[C@H](N2CCOCC2)C1	inactive: 0.966
COC(=O)[C@@H](N)CS	inactive: 1

Structure (SMILES)	relative growth
O=C(C[C@@H]1CC[C@H](NC(=O)CN2CCOCC2)[C@@H](CO)O1)NCCc1ccncc1	inactive: 0.996
Cc1noc(C)c1NC(=O)N(C)C[C@H]1OCCCC[C@@H](C)Oc2ccc(NC(=O)Nc3ccc4c(c3)OCO4)cc2C(=O)N([C@H](C)CO)C[C@@H]1C	inactive: 1.03
COCCNC(=O)CCC(=O)NN=c1nc2ccccc2c2nc(C)[nH]n12	inactive: 0.987
NCc1nnnn1-c1ccc(F)cc1	inactive: 1
C[C@@H]1CN([C@H](C)CO)C(=O)c2cc(NC(=O)CCCN(C)C)ccc2O[C@@H](C)CCCCO[C@H]1CN(C)CC1CCCCC1	inactive: 1.01
C[C@@H]1CN([C@@H](C)CO)C(=O)c2cc(NC(=O)C3CCCCC3)ccc2O[C@@H](C)CCCCO[C@@H]1CN(C)C(=O)Cc1ccccc1	inactive: 1.01
CN(C)CCCNC(=O)C[C@@H]1CC[C@H](NS(=O)(=O)c2ccccc2)[C@H](CO)O1	inactive: 1.03
Cc1ccc(S(=O)(=O)Nc2ccc3c(c2)C(=O)N([C@H](C)CO)C[C@H](C)[C@H](CN(C)Cc2ccc4c(c2)OCO4)OCCCC[C@@H](C)O3)cc1	inactive: 0.987
COc1ccccc1CNS(C)(=O)=O	inactive: 1
C[C@@H]1[C@@H](c2ccccc2)OC(=O)[C@@H]2[C@@H]3C=C[C@]4(O3)[C@H](C(=O)N(Cc3ccccc3)C/C=C\CCC(=O)N1C)N([C@@H](C)CO)C(=O)[C@@H]24	inactive: 0.998
CC(C)NC(=O)N(C)C[C@H]1Oc2ccc(NC(=O)NC3CCCCC3)cc2CC(=O)N([C@H](C)CO)C[C@@H]1C	inactive: 0.99
CC(C)N1CCNCC1	inactive: 1.05
C[C@@H]1CN([C@H](C)CO)C(=O)c2cc(NS(=O)(=O)c3cccs3)ccc2O[C@@H](C)CCCCO[C@@H]1CN(C)C(=O)C1CCCCC1	inactive: 0.985
COc1ccc(NC(=O)N(C)C[C@@H]2Oc3ccc(NC(=O)CCCN(C)C)cc3C(=O)N([C@@H](C)CO)C[C@@H]2C)cc1	inactive: 1.03
COc1ccccc1CNC(=O)C[C@H]1C[C@H]2c3cc(NC(=O)Cc4ccncc4)ccc3O[C@H]2[C@@H](CO)O1	inactive: 1.01
Nc1ccc(-n2cccc2)cc1Cl	inactive: 0.966
C[C@@H]1CN([C@@H](C)CO)C(=O)Cc2cc(NS(=O)(=O)c3ccccc3)ccc2O[C@@H]1CN(C)S(=O)(=O)c1cn(C)cn1	inactive: 0.978
C[C@H](CO)N1C[C@H](C)[C@@H](CN(C)S(=O)(=O)c2ccccc2F)Oc2cc(C#Cc3cccc(F)c3)ccc2S1(=O)=O	inactive: 1.01
Cc1ccc(S(=O)(=O)N(C)C[C@@H]2OCCCC[C@@H](C)Oc3ccc(NC(=O)Cc4ccccc4)cc3C(=O)N([C@@H](C)CO)C[C@@H]2C)cc1	inactive: 1.01
C[C@@H]1CN([C@@H](C)CO)S(=O)(=O)c2ccc(-c3ccc(C(=O)N(C)C)cc3)cc2O[C@H]1CN(C)C(=O)C1CCOCC1	inactive: 1.03
CCS(=O)(=O)N1CC[C@]2(CN(c3cnn(C)c3)C(=O)CN2C(C)=O)C1	inactive: 1.03
C[C@@H]1CCCCO[C@@H](CN(C)S(=O)(=O)c2ccc(Cl)cc2)[C@H](C)CN([C@@H](C)CO)C(=O)c2cc(NC(=O)Cc3ccccc3)ccc2O1	inactive: 1.03

Structure (SMILES)	relative growth
C[C@@H]1CN([C@H](C)CO)C(=O)c2c(c3ccccc3n2C)-c2ccccc2CO[C@@H]1CN(C)S(=O)(=O)c1ccc(Cl)cc1	inactive: 1.06
COC(=O)C1=CO[C@@H](O[C@@H]2O[C@H](CO)[C@@H](O)[C@H](O)[C@H]2O)[C@@H]2[C@@](C)(O)[C@@H](OC(=O)/C=C/c3ccc(O)cc3)C[C@]12O	inactive: 1
O=C(C[C@H]1C[C@H]2c3cc(NC(=O)c4cccnc4)ccc3O[C@H]2[C@H](CO)O1)NCc1cc(F)ccc1F	inactive: 0.979
CO[C@H]1CN(C)C(=O)c2cc(NC(=O)NC3CCCCC3)ccc2OC[C@H](C)N(CCc2ccccc2)C[C@H]1C	inactive: 0.96
Cc1ccc(S(=O)(=O)N2C[C@@H](O)COC[C@H]3O[C@H](CC(=O)NCCCN(C)C)CC[C@@H]32)cc1	inactive: 0.987
CCOC(=O)[C@H](C(C)=O)[C@H]1CCS(=O)(=O)C1	inactive: 0.897
C[C@@H]1CN([C@@H](C)CO)C(=O)c2cccc(NC(=O)Nc3ccc(C(F)(F)F)cc3)c2O[C@H]1CN(C)Cc1ccc(C(=O)Nc2ccccc2N)cc1	inactive: 0.956
COCC(=O)N(C)C[C@H]1Oc2cc(-c3ccc(C#N)cc3)ccc2S(=O)(=O)N([C@H](C)CO)C[C@H]1C	inactive: 0.997
CC(C)NC(=O)N(C)C[C@H]1OCCCC[C@@H](C)Oc2ccc(NS(=O)(=O)c3cn(C)cn3)cc2C(=O)N([C@H](C)CO)C[C@H]1C	inactive: 0.963
Cc1ccc(S(=O)(=O)Nc2cccc3c2O[C@H](CN(C)Cc2ccc(-c4ccccc4)cc2)[C@@H](C)CN([C@H](C)CO)C3=O)cc1	inactive: 1.05
C[C@@H]1CCCCO[C@@H](CN(C)S(=O)(=O)c2ccccc2)[C@H](C)CN([C@@H](C)CO)C(=O)c2cc(NC(=O)Nc3ccc4c(c3)OCO4)ccc2O1	inactive: 0.993
C[C@@H]1CCCCO[C@H](CN(C)Cc2ccc(C(F)(F)F)cc2)[C@@H](C)CN([C@@H](C)CO)C(=O)c2cc(NS(=O)(=O)c3cccs3)ccc2O1	inactive: 1.05
Cc1noc(C)c1S(=O)(=O)N(C)C[C@@H]1Oc2ccc(NC(=O)Cc3cn(C)c4ccccc34)cc2CC(=O)N([C@@H](C)CO)C[C@@H]1C	inactive: 0.971
C[C@H]1CN([C@@H](C)CO)C(=O)c2cc(-c3cccnc3)cnc2O[C@H]1CN(C)C(=O)Nc1ccc2c(c1)OCO2	inactive: 1.01
CCOCCOCCOc1oc(C(=O)NC2CCCCC2)c(-c2ccc(Cl)cc2)c1S(=O)(=O)c1ccc(Cl)cc1	inactive: 1.02
NS(=O)(=O)Cc1noc2ccccc12	inactive: 0.932
Cc1noc(C)c1S(=O)(=O)Nc1cccc2c1O[C@H](CN(C)C(=O)Nc1ccc3c(c1)OCO3)[C@H](C)CN([C@@H](C)CO)C2=O	inactive: 1.02
COCc1cn(CC[C@H]2CC[C@H](NC(=O)CCN3CCCCC3)[C@H](CO)O2)nn1	inactive: 1.03
C[C@@H]1CCCCO[C@@H](CN(C)CC2CCCCC2)[C@@H](C)CN([C@@H](C)CO)C(=O)c2cc(NC(=O)Nc3cccc4ccccc34)ccc2O1	inactive: 1
C[C@H]1CN([C@@H](C)CO)C(=O)c2cc(-c3ccc(C(=O)N(C)C)cc3)cnc2O[C@@H]1CN(C)C(=O)CN(C)C	inactive: 0.993
